The campaign covered roughly 120,000 compounds. About 5,300 (4.4%) were called active. The shares of active, inactive and inconclusive entries below differ from those in the screen. Calls follow the shape of the dose curve; as a rule, active = well fitted inhibition curve with a large enough effect; inconclusive = small, poorly fitted or top-dose-only effect; inactive = no such curve, though single readings can be large or run the other way. Potencies of inconclusive entries are doubtful fits and often do not repeat.
Test: qHTS Primary assay for Inhibitors of Plasmodium falciparum Dd2 growth in vitro; also: nearly all actives have a fitted effect of over 65% in size;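 as to activity, negative = inhibition: plate controls were DMSO vehicle for no effect and reference drug for full effect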
Conditions: P. falciparum Dd2 growth, SYBR Green, 72 h; activity, negative = inhibition: at 28.9 µM (top of the series) unless noted; series mostly up to 28.9 µM
Procedure, shortened: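 Readout: SYBR Green fluorescence, 485 nm excitation, 535 nm emission, after ~16 h lysis at 37C. Before that, Dd2-infected red cells (2.5% hematocrit) grew 72 h with compound, 29 uM top final concentration.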
Potency is read from the fitted curve at half-maximal effect; tags tell the direction and shape of the fitted curve.

| Compound | activity, negative = inhibition | Potency | outcome |
| --- | --- | --- | --- |
| COC(=O)CNC(=O)C1CCc2nnc(C3CCN([S+](=O)([O-])c4ccccc4)CC3)n21 (stereo not given) | inactive: 0.604% | – | – |
| Cc1nc2scc(CC(=O)Nc3ccc(F)cc3)n2c(=O)c1-c1cc(C)n(-c2ccccc2F)n1 | – | inconclusive: 3.98 µM [inhibitor, partial curve] | – |
| O=C(c1cccc(OC2CN(CC3CC=CCC3)C2)c1)N1CCCC1 (stereo not given) | – | inconclusive: 11.2 µM [inhibitor, single point] | – |
| O=C(NCc1c[nH]c(=O)[nH]c1=O)C1CCN(Cc2ccco2)CC1 | – | inconclusive: 3.55 µM [inhibitor, single point] | – |
| CCN(C)c1ccnc(N2CC[C@@H]3C[C@H](N4CCOCC4)CC[C@@]3(COC)C2)n1 | – | active: 8.91 µM | – |
| CN(C)S(=O)(=O)N1CCN(C(=O)Cn2nc3c(cc2=O)CCCC3)CC1 | inactive: 6.45% | – | – |
| O=C(CN(c1ccc(Cl)c(C(F)(F)F)c1)S(=O)(=O)c1ccccc1)Nc1cccnc1 | – | inconclusive: 12.6 µM [inhibitor, partial curve, poor fit] | – |
| CC(C)N1C(=O)OCC12CCN(Cc1cccnc1)C2 (stereo not given) | inactive: -2.48% [at 44.1 µM] | – | – |
| O=C(NCc1ccnc2[nH]ccc12)c1ccc2c(c1)OCO2 | inactive: 3.44% [at 44.1 µM] | – | – |
| COc1ccc(NC(=O)CCc2cc3ccccc3[nH]c2=O)cc1OC | – | inconclusive: 5.62 µM [inhibitor, partial curve, poor fit] | – |
| O=C(C[C@@H]1CCNC[C@@H]1Cc1cc(CC2CCCCC2)on1)NC1CC1 | inactive: -15.6% [at 44.1 µM] | – | – |
| O=C(c1ccco1)N1CCN(C(=O)C2CCc3ncc(-c4ccc(F)cc4)n3C2)CC1 (stereo not given) | – | – | inactive |
| O=C(Nc1ccnn1C1CCN(Cc2ccc(-c3ccco3)cc2)CC1)C1CC1 | – | inconclusive: 15.8 µM [inhibitor, partial curve, poor fit] | – |
| Cc1ccc(CNC(=O)N2CCCC2c2nc(CCOc3ccc(F)cc3)no2)cc1 (stereo not given) | – | inconclusive: 7.94 µM [inhibitor, single point] | – |
| O=C(N[C@@H]1CN(C(=O)C2CC=CC2)CC[C@@H]1CO)C1CC1 | inactive: -3.05% | – | – |
| O=C(NCc1ccc2c(c1)OCO2)c1ccc2c(c1)N(Cc1ccccc1F)C(=O)c1ccccc1S2=O (stereo not given) | – | inconclusive: 17.8 µM [inhibitor, single point] | – |
| CCOCC1(C)COc2ccc(C(=O)Nc3ccccc3)cc2N1 (stereo not given) | – | – | inactive [at 44.1 µM] |
| COc1ccccc1CNc1ncncc1-c1nc(-c2ccccc2)no1 | – | inconclusive: 3.98 µM [inhibitor, single point] | – |
| CCn1c(-c2ccccc2)nn(CC(=O)NCc2ccsc2)c1=O | inactive: 7.07% | – | – |
| Cc1ccccc1C(=O)Nc1c(C(=O)Nc2cccc(F)c2)oc2ccccc12 | – | inconclusive: 17.8 µM [inhibitor, single point] | – |

— PubChem BioAssay AID1347417 (National Center for Advancing Translational Sciences (NCATS), 2020)
